The full ranking holds about 33,000 sequences; the median of “E-score (-0.5 to 0.5)” is about -0.017, and the highest 2% start at about 0.3. This is one part of the list.

The target of the assay is T1, Sut1 (UniProt P53032).
T1 sequence: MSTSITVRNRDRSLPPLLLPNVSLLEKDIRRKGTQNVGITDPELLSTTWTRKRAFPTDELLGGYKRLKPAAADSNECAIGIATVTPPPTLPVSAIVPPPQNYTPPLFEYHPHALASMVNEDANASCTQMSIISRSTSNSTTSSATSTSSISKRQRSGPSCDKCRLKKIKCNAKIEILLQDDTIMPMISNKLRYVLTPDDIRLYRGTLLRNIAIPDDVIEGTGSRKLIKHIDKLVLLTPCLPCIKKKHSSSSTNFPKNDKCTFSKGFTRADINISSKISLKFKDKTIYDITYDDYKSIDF
As to the kind of experiment: PBM E-score (8-mer binding enrichment) (E-score (-0.5 to 0.5)); higher = stronger / more preferred TF binding; most listed sequences are background and not binding sites. The note with it: protein concentration: 200 nM; construct: GST-full length. On the procedure:
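Universal 'all 10-mer' protein binding microarrays (Agilent AMADID 015681) probed with GST-tagged S. cerevisiae TFs (full-length or DBD) made by in vitro transcription/translation (PURExpress), about 100-200 nM. Bound TF was detected with fluorescent anti-GST. Each ungapped 8-mer (which stands for itself and its reverse complement) is scored by the PBM enrichment score (E-score), a modified Wilcoxon-Mann-Whitney statistic from -0.5 to +0.5, computed with the Universal PBM Analysis Suite. Scale: above 0.35 generally sequence-specific binding.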
As for ACCGCACC, the “PBM E-score” value is -0.173.

Take AACCATAA: the “PBM E-score” value came out at 0.187.

On to AGCACCGC, for which the “PBM E-score” value was -0.21.

With AGCTGAAG, the “PBM E-score” value is -0.0924.

CGAACCTC: the “PBM E-score” value was -0.00524.

As to AACGGTGC, the “PBM E-score” value is -0.00434.

For the sequence ACTGGGCC, the “PBM E-score” value is -0.0163.

Take CAATAATA: the “PBM E-score” value came to 0.277.

In the case of CCCAAACC, the “PBM E-score” value was -0.0698.

Take CAGCCTTA: the “PBM E-score” value was -0.0963.

With AAGTGGAA, the “PBM E-score” value was -0.0445.

With ATATTCTC, the “PBM E-score” value was 0.151.

As for CATATGAC, the “PBM E-score” value is -0.11.

Regarding GAGTTACA, the “PBM E-score” value is 0.148.

AGTGAAAC: the “PBM E-score” value was determined as 0.106.

Turning to CCCATATA, the “PBM E-score” value was -0.111.

With GGGACACA, the “PBM E-score” value was -0.076.

Take CATTATGC: the “PBM E-score” value was found to be 0.113.

In the case of CCCATCCG, the “PBM E-score” value is -0.0816.

In the case of CGGATCTC, the “PBM E-score” value came to 0.0328.

As for CATCACCG, the “PBM E-score” value is -0.0295.

On to GAGCCACC, for which the “PBM E-score” value is -0.264.

As to ATGCAAAA, the “PBM E-score” value came out at 0.197.

Regarding TCTGAAAA, the “PBM E-score” value came to 0.151.

On to CATATAAA, for which the “PBM E-score” value worked out at 0.15.

Turning to CTCTCGGA, the “PBM E-score” value was 0.32.

Take CCTCGAAC: the “PBM E-score” value is -0.154.

For GCACTTCA, the “PBM E-score” value amounted to 0.0427.

Turning to AAGCGGAA, the “PBM E-score” value stood at 0.0759.

CATCATGC: the “PBM E-score” value was -0.046.

Turning to GTAAGCCA, the “PBM E-score” value was -0.205.

AAGTCCAT: the “PBM E-score” value was 0.0246.

As for GACGCAAC, the “PBM E-score” value was -0.109.

As to ATCCATCC, the “PBM E-score” value stood at 0.148.

With ACAAGGTC, the “PBM E-score” value is -0.168.

In the case of ATTTCTTG, the “PBM E-score” value was 0.271.

On to CCCTGTAC, for which the “PBM E-score” value is -0.276.

In the case of CAACCCAC, the “PBM E-score” value was -0.069.

For AACCCAAT, the “PBM E-score” value is 0.0381.

Turning to CCTCGTGA, the “PBM E-score” value is -0.123.

Take GTTAAGAA: the “PBM E-score” value was 0.0156.

AGCTAGTG: the “PBM E-score” value is -0.208.

As to ATTCACGG, the “PBM E-score” value came to 0.219.

As for AATGGACA, the “PBM E-score” value is 0.0358.

In the case of GCGGAGAA, the “PBM E-score” value turned out to be 0.279.

Regarding TGTTATAA, the “PBM E-score” value turned out to be 0.299.

In the case of CCGCTCGA, the “PBM E-score” value was -0.104.

In the case of AACCGAAC, the “PBM E-score” value was 0.134.

As to CGCAAGTA, the “PBM E-score” value is 0.00362.

CCTGTCTA: the “PBM E-score” value was -0.00562.

Consider CGGTGAGC, for which the “PBM E-score” value was -0.124.

Take ATAGTGTC: the “PBM E-score” value is -0.0389.

With AAGTTCAC, the “PBM E-score” value is -0.0197.

CGCTTCGC: the “PBM E-score” value was -0.0709.

In the case of CAACTCCC, the “PBM E-score” value was 0.12.

As for CCTGGCGC, the “PBM E-score” value was -0.0758.

On to AGTTCACG, for which the “PBM E-score” value was -0.089.

Consider CCGAGAAG, for which the “PBM E-score” value was 0.0844.

On to CCGACAAA, for which the “PBM E-score” value turned out to be 0.313.

Consider ACGTGGAC, for which the “PBM E-score” value was -0.0921.

AGGAGTTG: the “PBM E-score” value came out at 0.114.

As for CAAAGCCC, the “PBM E-score” value is -0.0153.

For ACCGGACA, the “PBM E-score” value stood at 0.234.

CGGCTAGA: the “PBM E-score” value was -0.0327.

AACCTTCA: the “PBM E-score” value is 0.0886.

Consider AAGCATAT, for which the “PBM E-score” value stood at 0.0695.

Consider CCGCACTC, for which the “PBM E-score” value was 0.13.

Regarding AAGTCTAC, the “PBM E-score” value came out at 0.004.

For AACAAGGT, the “PBM E-score” value worked out at 0.0565.

Consider ATAAATTC, for which the “PBM E-score” value came to 0.219.

As for TACTCCCA, the “PBM E-score” value was determined as 0.0185.

As for CCACACCC, the “PBM E-score” value was -0.148.

On to CATGATCG, for which the “PBM E-score” value is -0.0597.

For GCCCCAGA, the “PBM E-score” value was -0.251.

As for CGCATATC, the “PBM E-score” value came out at 0.215.

CAGGCTAC: the “PBM E-score” value is -0.217.

Regarding CTGGTCAC, the “PBM E-score” value was -0.013.

For CATAACTC, the “PBM E-score” value was determined as 0.0776.

For the sequence CAGGCAAC, the “PBM E-score” value was -0.0541.

Turning to AGCCTACC, the “PBM E-score” value was -0.187.

Consider AATATACG, for which the “PBM E-score” value turned out to be 0.0669.

In the case of GCAATAAA, the “PBM E-score” value was found to be 0.237.

For the sequence CGTGTCGA, the “PBM E-score” value is -0.282.

For the sequence AACCGACA, the “PBM E-score” value was found to be 0.0408.

In the case of CAATTTGG, the “PBM E-score” value was -0.0638.

Consider ACACGGGA, for which the “PBM E-score” value is -0.0537.

Regarding CGTACCGC, the “PBM E-score” value is -0.147.

Turning to CTCCCACA, the “PBM E-score” value is -0.112.

As for GCTTGTCA, the “PBM E-score” value was found to be 0.0707.

Take CGGAATCA: the “PBM E-score” value was 0.248.

Take CACGTATG: the “PBM E-score” value came to 0.0435.

In the case of AAATGGAG, the “PBM E-score” value was 0.0191.

As for GGCCTTCA, the “PBM E-score” value was -0.037.

On to ATCGGCAC, for which the “PBM E-score” value is -0.108.

Turning to CTATGGGC, the “PBM E-score” value is -0.194.

Regarding ACCACCCT, the “PBM E-score” value is -0.17.

For GCCCGGGA, the “PBM E-score” value is -0.116.

As for CCCCGCGC, the “PBM E-score” value was -0.0648.

For AACACTTC, the “PBM E-score” value amounted to 0.0137.

With GCACCAGC, the “PBM E-score” value is -0.163.

On to GTAAACTA, for which the “PBM E-score” value was 0.227.

Consider GCCGCTCA, for which the “PBM E-score” value is -0.177.

With CGGCCCTA, the “PBM E-score” value was -0.0121.

For GTGTTCCA, the “PBM E-score” value is -0.128.

For CCAAGTTC, the “PBM E-score” value was -0.107.

With GTTAATCA, the “PBM E-score” value worked out at 0.23.

As for ACGGGAGG, the “PBM E-score” value is -0.0871.

In the case of CAACGAAA, the “PBM E-score” value came out at 0.141.

Take TCTTACAA: the “PBM E-score” value amounted to 0.0742.

Values taken from the supplement of paper PMC3334620.
